Measured values published in the RNAGym collection of RNA variant scans (doi:10.7554/elife.90254).
Read counts are not given, so values of variants with three or more changes are uncertain.

B1: LINE1-mini (parent)
chain: GGCAGAGCUCAACACAGCGUGGCAAAGUGGCUGUGGCUAGACUGCC

Variants of: B1
Assay: self-cleavage, relative activity (ratio to wild type); higher = more cleavage; in vitro, sequencing; the parent is a self-cleaving ribozyme

Row | Variant | self-cleavage
1 | GGCAGAGAACAAAACAGCGAGGCAAAGUGGCUGUGGCCAGACUGCC | 0.15
2 | GGCACAGCUCAACGCAGCGUGGCAAAGUAGCUGUGGCUAAACUGCG | 0.01
3 | GGCAGAGCUAUUCACAGCGUGGCAAAGUGGCUGUCGCUAGACUGCC | 0.03
4 | GGCCGAGCUAAACACAGCGUGGCAAAGUGGCUGUCGCUAGACUGCU | 0.04
5 | GGCAGAGCUCAACGCAGCAUGGCAAAGUGGCUGUGGCUAGACUGCA | 0.39
6 | GGCAGAGCGCAACACACCGUGGCAAAGAGGCUGUGGCUAGACUGCC | 0.14
7 | GGCAGAGCUCAACACAGCGUGUCAAAGUGGCUGUGGCUAGGCUGGC | 0.02
8 | GGCAAAGCUCAACACAGCGUGGCAAAGUGGCUGUGGCUAUACUGAU | 0.04
9 | GGCAGAGCUCAACACAGCGUGUUAAAUUGGCUCUGGCUAGACUGCC | 0.06
10 | GGCAGAGCUCAACACAGCUUGGCAAAGGGGCUGCGGCUAGAAUGCC | 0.01
11 | GGCAGAGCACAACACACCGUGUCAAAGUCACUGUGGCUAGACUGCC | 0.11
12 | ACCAGAGCUCAACACAGCGUGGCAAAGUGGCUGUGGCUAGUCUGCC | 0.03
13 | GGCAGAGCUCGACCAAGCGUGGCAAAUUGGCUGUGGCUUGACUGCC | 0
14 | GGCAGAGCUCGACACAGCGUGGCAUAGUGUCUGGGGCUAGACUGCC | 0
15 | GGCUGAGCUAAACACAGCGUGGCAAAGUGGCUGUGGCUCGACCGCC | 0.02
16 | GGCAGAGCUCAACACAGCGUGGCAAAUUGCCUGUGGCUACACUGCC | 0.09
17 | GGCAGAGCUCAACACAGCGUAACAAAGUGGCUGUGACUAGUCUUCC | 0.03
18 | GGCAGAGCUAAACCCAGCGUGGCAUAGUUGCUGUGGCUACUCUGCC | 0.01
19 | GUCAGAGCUCAACACAGCGUGGCAAAGUGGCUGGGGGUAGACUGCC | 0

Row | Variant | self-cleavage
20 | GGCAGAGCUCAACCCAGGGUGGCAAAAACGCUGUGGCUAGACUGCC | 0.02
21 | GACAGAUCUCAACACAGUGUGGCAAAGUGGCUGUGGCUAGACUGCC | 0.82
22 | GGCAGAGUUCAACACAACGUGGCAAAGUGGCAGUGGAUAGACUGCC | 0.2
23 | GGCUGAGCUCAACAGAGCGUGGCCAAGUGGCUGUCGCUAGACUGCC | 0.01
24 | GGCAGGUCUCAACACAAAGUGGCAAAGUGGCUGUGGCUCGACUGCC | 0.01
25 | GUCAGAGCUCAACACAGCGUUGCAAAGUGGCUGUGGCAAGACUGCC | 0.08
26 | GGCAGAGGUCAACACAGCCUGGCAAAGUGGCUGUGGUUAGACUGCC | 0.02
27 | GGCACAGCUCUACACAGCGUGGCAAAGUGGCUGUGACUAGACUGCC | 0.04
28 | GGCACAGCUCAACACAUCGUGGCAAAGUGGCUGUGGCUGGACUGCC | 0.02
29 | GGCAGAGCUCAAUACAGUGUGGCAAAGUGGCUGUGGUUAGACUGUC | 0.05
30 | GGCUGAGCUCAACAAAGCGUUGCAAAGUGGCUGUGACUAUCCUGCC | 0.03
31 | GGCUGAGCUCAACACAGAGUGGCAAAGUAGCUGUGGCUAGACUGCC | 0.05
32 | GGCAGAGGUCAACACAGCAUGGUAAAGUGGCUGUGUCGAGACUGCC | 0.01
33 | GGCAGAGCUCAACACAGCGUGGGAAAGCGGCUGAGGCUAGACUGCC | 0.37
34 | GGCAGAGCUCAACACAGCGUUCCAAAGUGGCUUUGGCUAGACUGCC | 0.05
35 | GGCAGAGCUCAACACAGCGUGGAAACGUGGCUGUGGCGAGACUGCC | 0.02
36 | GGCAGAGCUCAACACAGCGUGACACAGUGGCUGUGGCUAUAAUGCG | 0.04
37 | GGCAGAGCUCAACAGCGUGUGGCAAAGUGGCUGUGGCUAGACUGCC | 0.09
38 | GGCAGAGCUCUAAACAGCGUGGCAAAGUGGCUGUGGCUAAACUGCC | 0.02

Row | Variant | self-cleavage
39 | GGCAGAGCUUAAGACAGCGUGGCAAAGAGGCUGUGACUAGACUGCC | 0.04
40 | GGCAGAUCUCAACACAGCGUGGCAAAGUGGCUGUGGUGAGACUGCA | 0.02
41 | GCCAGGGCUCAACAUAGCGUGGCAAAGUGGCUGUCGCUAGACUGCC | 0.09
42 | GGCAGAGCUCAGCACAACGUGGCAAAGUGGCUGUGUCUAGACUGCC | 0.07
43 | GGCAGAGCUCAACACAGCGUCGCAAAGGGCCUGUGGCUAGAUUGGG | 0.01
44 | GGCAGAGCUCAACACAGCGGGGAAAAGUGGCUGUGGCUAUACUGCG | 0.46
45 | GGCAGAGCUCAACACAGCGGUGCAAAGUGGCUGUUGCUAGACUGCC | 0.02
46 | GGGUGAGCUCAACACAGCGUGGCCAAGUCGCUGUGGCUAGACUGCC | 0.04
47 | GGCAGAUCUCAACACAGCGUGGCAAAGUGCCUGUGGCAAGACUGCC | 0.04
48 | GGUAGAGCUCAAGACAGCGUGGCAAAGUGACUGUGGCUAGACUGCC | 0.02
49 | GGCAGACCUCAAUACAGCGUGGCAACGUGGCUGUGGCUACACUGCC | 0.08
50 | GGCCGAGCUCAACACAGCGCGGCAAAGUGGCUGUAGCUAGACUGCC | 0.05
51 | GGCAGAGCUCACCACAGCGUGGUAUAGUGGCUGUGAUUAGACUGCC | 0.03
52 | GGCAGAGCUCAACACACCGUGCCAGAGUGGCUGUGGCUAGACUGCC | 0.18
53 | GGCAGAGCUAAACACAUCGUGGCAAAGUGACUGUGGCUAGACUGCC | 0.05
54 | GGCAGACCACAACGCAGCGUGGCAAAGUGGCUGUGGCUAGACUGCC | 0.05
55 | GGCAGAGCUCAACACAGCGUGACAAAGUCGCUGUGGCUAGACAGCC | 0.01
56 | GGACGAGCUAAACACAGAUUGGCAAAUUGGCUCUGGCUAGCCUGCC | 0
